172 sequences from article PMC10668032 can be followed below.

The other results are listed elsewhere or left out. At the low end of the ranking the order means little.

The target of the experiment is SIX1 homeodomain (reference allele) (UniProt Q15475). Put plainly: universal protein binding microarray. As to conditions: Universal all-10-mer PBM (8x60K, AMADID 030236), 300 nM GST-tagged protein, Alexa Fluor 488 anti-GST; buffer, salt, pH and temperature not stated; high values mean tight binding; most listed sequences are background and not binding sites; double strand, one strand shown.
On to TAACGTTA, for which the binding signal is -0.235 E-score. With CACGTAGG the figure was -0.034 E-score. Take AACCAAAT: the binding signal is -0.118 E-score. As to AACCGAGG, the binding signal was -0.083 E-score. Turning to AGAACATA, the binding signal was found to be 0.152 E-score. Turning to ACTCGATC, the binding signal was found to be 0.0395 E-score. With GCGAAGCA the figure was -0.283 E-score.

For CAAGGAGG, the binding signal worked out at 0.0667 E-score. As for ATAGCTAT, the binding signal amounted to 0.27 E-score. Turning to ACCGCCCT, the binding signal was 0.0181 E-score. Regarding AGCCTGAT, the binding signal was found to be 0.203 E-score. Then TAAAATGA, with 0.0255 E-score; and GTGCGAAA, with -0.297 E-score; and AGCACAGA, with 0.0306 E-score. Then ATCGCAAT, with 0.194 E-score.

For the sequence AATGTAGA, the binding signal is -0.134 E-score. For the sequence GTCCAAAA, the binding signal was -0.171 E-score. For the sequence CCCATTAG, the binding signal is -0.267 E-score. In the case of CAAGTGGG, the binding signal was determined as 0.00481 E-score. GACGCATC: the binding signal came out at 0.132 E-score.

For the sequence GTCTCATA, the binding signal was 0.274 E-score. Turning to ATGCCCAC, the binding signal is -0.101 E-score. In the case of ACTGGATA, the binding signal amounted to 0.292 E-score.

On to CATGCGGC, for which the binding signal was -0.213 E-score. Then CGATAATA, with 0.328 E-score. With ACCCGGTC the figure was -0.0936 E-score; with AGTCCAAC, -0.28 E-score; with ACCTGCGC, -0.0146 E-score. For CTGTCTTC, the binding signal was -0.351 E-score. Consider ATACTGCA, for which the binding signal came to 0.242 E-score. Turning to TACACGTA, the binding signal is 0.205 E-score. With GCCATATA, the binding signal was 0.215 E-score. For the sequence AAAATCAG, the binding signal was -0.216 E-score. Regarding AGAGGAGG, the binding signal came to 0.00861 E-score. Then ATACACAG, with 0.289 E-score. For the sequence ACGCCTAA, the binding signal is -0.153 E-score. Regarding CTGAGAGC, the binding signal was 0.133 E-score. In the case of CAACGTGA, the binding signal was -0.113 E-score. Turning to ATACTCCG, the binding signal amounted to 0.359 E-score. Take ACATGTCT: the binding signal is -0.0505 E-score. For the sequence TAAAGGCA, the binding signal was -0.317 E-score. With TAAGTGCA the figure was -0.101 E-score. Take ACGGTTCA: the binding signal is -0.117 E-score. Turning to ACGCCTTA, the binding signal is -0.00294 E-score. CCTCGAGC: the binding signal was -0.0555 E-score.

Turning to ATGACAGC, the binding signal is -0.168 E-score.

ACTAAGTG: the binding signal is -0.0756 E-score.

On to CGGTGACC, for which the binding signal was -0.107 E-score.

For CCGGAGTC, the binding signal was -0.115 E-score. As to GGGCTACC, the binding signal is -0.172 E-score. As for GGCGAAAC, the binding signal is -0.159 E-score. Then CCCGGCCG, with -0.0205 E-score. Consider ATGTGCCG, for which the binding signal is -0.0276 E-score. With TACTGCGA the figure was 0.0491 E-score; with CGCGGTAC, 0.148 E-score; with TTATGCAA, -0.00696 E-score. Regarding CGAGATCG, the binding signal was 0.207 E-score. In the case of CCTTCGTC, the binding signal is -0.208 E-score. In the case of GATATCAC, the binding signal is 0.476 E-score. As to TGAGAAAA, the binding signal was -0.139 E-score. Turning to AAGAAAGC, the binding signal is -0.312 E-score. As for GAGGTAAC, the binding signal came to 0.00647 E-score. Consider ACGGGGAC, for which the binding signal is -0.0925 E-score. For the sequence AGCTGCAC, the binding signal is -0.219 E-score. With GCTATAAC the figure was -0.038 E-score; with TACCCTGA, 0.249 E-score; with AATACAAT, 0.0941 E-score. In the case of GGTACCCA, the binding signal is -0.0424 E-score. Turning to AAAGAATA, the binding signal came to 0.0838 E-score. For CGACTCAA, the binding signal is -0.173 E-score. Turning to ATGCTTTG, the binding signal is -0.142 E-score. On to GGCATACC, for which the binding signal stood at 0.0187 E-score.

As to CGGTCGTA, the binding signal was -0.114 E-score. With CATCGCGC the figure was -0.12 E-score; with CATGACTC, -0.303 E-score. For the sequence ATTCGGAG, the binding signal was -0.0897 E-score. Turning to CAATATGC, the binding signal came to 0.0633 E-score.

Consider GGATTAAC, for which the binding signal worked out at 0.148 E-score. For GTGGCGAA, the binding signal was -0.189 E-score. With ATCCGCAC, the binding signal turned out to be 0.349 E-score. In the case of AAATTAAG, the binding signal is -0.277 E-score.

Regarding GTTACTCA, the binding signal is -0.0827 E-score.

On to CGAGTCTC, for which the binding signal is -0.0674 E-score.

In the case of ACCGCTAA, the binding signal is -0.0946 E-score. For the sequence GAGCATAA, the binding signal is 0.0387 E-score.

Regarding ACCACGGA, the binding signal turned out to be 0.0747 E-score. Then AGAACAAA, with -0.0746 E-score; and CAGGTGTA, with 0.272 E-score; and CTAACTCC, with -0.155 E-score. With GGATATCC, the binding signal was 0.467 E-score. For CGGATCAG, the binding signal came to 0.443 E-score.

AGAACTGG: the binding signal amounted to 0.00542 E-score. In the case of CGATGTAG, the binding signal is -0.156 E-score. Then AAGTTGTA, with -0.0587 E-score; and ACCCATGG, with 0.0706 E-score. Turning to CCCACGCG, the binding signal is -0.0939 E-score.

Take TACGTCGA: the binding signal is -0.0838 E-score. Then ACTGTCTC, with 0.0286 E-score; and AGCTAAGG, with -0.272 E-score. In the case of GTTCTCAA, the binding signal is -0.00177 E-score. With CACATCAA, the binding signal was -0.0397 E-score. GAATCCGA: the binding signal stood at 0.188 E-score. Then AACAGATC, with 0.2 E-score; and ACGTGGGA, with 0.00087 E-score.

As for ATAGAAAT, the binding signal was found to be 0.0207 E-score. Take ATGTTATA: the binding signal worked out at 0.0232 E-score. Turning to ATAATGGG, the binding signal was found to be 0.065 E-score. In the case of TACCACTA, the binding signal came to 0.0147 E-score. As for AGGTCACT, the binding signal was -0.199 E-score. With GGAAGATA, the binding signal is 0.315 E-score. For the sequence TCGGACCA, the binding signal is -0.0772 E-score.

Take ACTACCTA: the binding signal was found to be 0.157 E-score. In the case of AGAGTCCA, the binding signal was -0.209 E-score. Take ATCATTGC: the binding signal turned out to be 0.244 E-score.

In the case of AGGGTTAG, the binding signal was found to be 0.037 E-score. Then AAGAGACT, with -0.294 E-score; and AACTGTTC, with -0.285 E-score; and TACTCGAA, with 0.152 E-score. Then AACTGCCA, with -0.326 E-score.

Regarding ATCCAGAA, the binding signal was found to be 0.167 E-score. Consider ATTCACAA, for which the binding signal was -0.132 E-score. Regarding AAAAAGAT, the binding signal was -0.134 E-score. Turning to ATAACTGC, the binding signal is -0.116 E-score. Then ATCTACTC, with 0.297 E-score; and TATAGGGA, with 0.206 E-score. In the case of ACTAGCAC, the binding signal is -0.0926 E-score. Take CGCTGACA: the binding signal is -0.113 E-score.

Take AGGCGGAC: the binding signal was -0.211 E-score. As for AAACTTAC, the binding signal is -0.0749 E-score. For the sequence AATGCCTG, the binding signal is -0.0586 E-score. Take ATGGTAGC: the binding signal is -0.0905 E-score. CGCTGCAC: the binding signal is -0.0672 E-score. For the sequence CACTGAGG, the binding signal came to 0.134 E-score. With TACGCCCA, the binding signal was 0.118 E-score. As to ACGAACGT, the binding signal was -0.0804 E-score. Take GCGATGAA: the binding signal turned out to be 0.0334 E-score. Regarding GCATCATA, the binding signal was determined as 0.183 E-score. In the case of GTCTGGCA, the binding signal is -0.195 E-score. As for ATGAAGCG, the binding signal is -0.202 E-score. As for ATCCATAC, the binding signal came out at 0.31 E-score. As for CATTTTAG, the binding signal was -0.201 E-score. Consider TCGAAAAA, for which the binding signal was -0.1 E-score. For CAGTAGCA, the binding signal was -0.0907 E-score. Then ATCCCAAG, with 0.191 E-score; and ATTGGTCC, with -0.26 E-score; and AATGGCCG, with -0.166 E-score. Then ATATTGGA, with 0.251 E-score. As for GAATACCA, the binding signal was determined as 0.278 E-score. Turning to AATACACC, the binding signal is 0.336 E-score. As for GGTTCAGA, the binding signal came out at 0.0319 E-score.

In the case of GCGACACC, the binding signal turned out to be 0.412 E-score. Consider AAAGGGGG, for which the binding signal is 0.00365 E-score. CTTGGTGC: the binding signal was -0.161 E-score. In the case of AACTCCCT, the binding signal was -0.275 E-score. On to ACGGTTAC, for which the binding signal was -0.0244 E-score. Consider AACATTAT, for which the binding signal came to 0.0258 E-score. On to GTGAGATA, for which the binding signal came out at 0.388 E-score. Turning to CTCCAGTC, the binding signal is -0.0729 E-score. As to AGGATTGA, the binding signal was 0.0145 E-score.

As to GAATCAAC, the binding signal amounted to 0.0081 E-score. For the sequence AGAAGAAG, the binding signal is -0.0978 E-score.

On to ATTCTATC, for which the binding signal came out at 0.0649 E-score. For the sequence GCGCACAA, the binding signal was -0.086 E-score. In the case of CTTATCCA, the binding signal worked out at 0.186 E-score.

On to CCGTGCAA, for which the binding signal is -0.0484 E-score. As for AGTAGACA, the binding signal is 0.132 E-score. CCGAAGGC: the binding signal was -0.0959 E-score. Take GACGGGTA: the binding signal came to 0.0282 E-score. With CCCGTTTC the figure was -0.0423 E-score; with CGCCACCC, -0.122 E-score; with CCGGAAGA, -0.0922 E-score.

Turning to GGACGGAA, the binding signal was -0.191 E-score.
